The structures appear in SMILES notation. Screen size: about 48,000 compounds; about 1,200 (2.5%) were called active. Roughly 2% stayed inconclusive and do not appear here.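 The calls were made as follows: active = activation of at least 60% and not above a set upper limit (about 1 call in 100 departs from these limits); inconclusive = activation of 40% to 60%, or above that upper limit; inactive = activation under 40%.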 The list shows a part of the results.

For this assay, the target named is Probable G-protein coupled receptor 32 (Homo sapiens) (UniProt O75388). Nature of the assay: qHTS for Agonists of Human Resolvin D1 Receptor DRV1. Also: 0% is about no effect. To be noted: CHO-K1 GPR32 beta-arrestin PathHunter luminescence, 90 min; at 76.9 µM; hits give high values; zero percent set by DMSO-only wells. In a few lines: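 Engineered CHO-K1 line co-expressing GPR32-ProLink and EA-beta-arrestin. Compound treatment lasted 90 min at 37 °C. Luminescence was recorded after 1 h with substrate at ambient temperature, relative to DMSO basal wells.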
UniProt O75388, sequence (O75388 whole entry, looked up): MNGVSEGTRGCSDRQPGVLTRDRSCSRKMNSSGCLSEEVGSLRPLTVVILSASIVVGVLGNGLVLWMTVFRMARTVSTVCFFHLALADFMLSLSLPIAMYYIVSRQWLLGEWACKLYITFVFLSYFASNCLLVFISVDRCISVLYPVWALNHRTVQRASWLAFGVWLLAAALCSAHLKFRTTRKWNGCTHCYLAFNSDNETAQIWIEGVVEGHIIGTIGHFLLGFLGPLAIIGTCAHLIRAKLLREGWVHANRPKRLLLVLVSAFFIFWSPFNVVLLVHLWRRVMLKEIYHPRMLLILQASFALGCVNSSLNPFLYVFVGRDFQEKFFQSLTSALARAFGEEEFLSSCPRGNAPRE
For orientation: qHTS replaces the single test concentration by a dilution series.
With `COc1ccc(OC)c(CNC(=O)C2CCN(S(=O)(=O)N3CCCCC3)CC2)c1`, the activation is inactive: -8.53%.
Consider `Cc1ccc(-c2onc(C)c2C)cc1S(=O)(=O)NCc1cccs1`, for which the activation was inactive: -9.69%.
On to `COc1ccccc1N1CCN(c2nc3ccc(C(=O)c4ccccc4)cc3n3c(C)nnc23)CC1`, for which the activation was inactive: -1.13%.
As to `Cc1cccc(C)c1Nc1c(-c2ccccc2Cl)nc2cnccn12`, the activation is inactive: 10.7%.
Take `CCCN(Cc1cccs1)C(=O)Nc1cc(C)ccc1OC`: the activation was inactive: -18.6%.
`O=C(c1ccc2c(c1)N(Cc1ccc(Cl)cc1)C(=O)c1ccccc1S2(=O)=O)N1CCCCCC1`: the activation is inactive: -12.4%.
Then `Cc1ccc(-c2cn3c(n2)sc2cc(C(=O)NCCC4=CCCCC4)ccc23)c(C)c1`, with inactive: -10.7%; and `CCOc1ccc(S(=O)(=O)NCC(c2ccc(N(C)C)cc2)N2CCCC2)cc1` (centres undefined), with inactive: -22.3%; and `O=C(COc1ccc(F)cc1)Nc1ccc2nc(SCC(=O)N3CCCC3)sc2c1`, with inactive: -8.24%.
Turning to `COc1ccccc1N1CCN(C2C(=O)c3ccccc3N2C(C)=O)CC1` (centres undefined), the activation is inactive: -23.9%.
Consider `CCCn1c(=O)c2[nH]c(C3CCCC3)nc2n(CCC)c1=O`, for which the activation is inactive: 8.85%.
Then `Cc1cccc(C)c1NC(=O)c1cc(S(N)(=O)=O)c(Cl)cc1O`, with inactive: -27.8%.
`CCOc1ccc(-c2nnc(SCC(=O)Nc3ccccc3C(F)(F)F)o2)cc1`: the activation is inactive: 20.6%.
In the case of `Cc1ccc(N2C(=O)C(CC(=O)Nc3ccc(F)cc3)N(CCC3=CCCCC3)C2=O)cc1` (centres undefined) it was inactive: 16.9%.
Turning to `O=C(NCC(c1cccs1)S(=O)(=O)c1cccs1)c1ccccc1F` (centres undefined), the activation is inactive: 13.1%.
For the molecule `Cc1ccc(S(=O)(=O)N(CC(=O)Nc2ccc(C(C)C)cc2)Cc2ccccc2)cc1`, the activation was inactive: -0.0716%.
In the case of `CC(=O)N1c2ccc(S(=O)(=O)NCC3CCC(C(=O)NC(C)(C)C)CC3)cc2CC1C` (centres undefined), the activation was inactive: -3.15%.
In the case of `Cc1ccccc1NC(=O)CCC(=O)N1CCSc2ccccc21` it was inactive: -14.3%; in that of `Clc1ccccc1N1CCN(c2ncnc3c2c(-c2ccccc2)cn3-c2ccccc2)CC1`, inactive: -32.3%.
For `CCN(CC)c1nn2c(=O)c(C(=O)NCc3ccc(OC)cc3OC)cnc2s1`, the activation was inactive: 10.8%.
Turning to `CCOC(=O)c1[nH]c2ccccc2c1NC(=O)c1ccccc1OCC`, the activation was inactive: -25.5%.
With `Cc1ccc(-n2nc3ccc(NC(=O)c4oc5ccccc5c4C)cc3n2)cc1`, the activation was inactive: 7.92%.
Take `COc1ccccc1CNC(=O)c1ccccc1NC(=O)c1nsc2ccccc12`: the activation is inactive: -3.99%.
In the case of `O=C(Nc1ccc2c(c1)CCCN2C(=O)c1cccs1)c1cccc(C(F)(F)F)c1`, the activation is inactive: -23.1%.
Consider `CCOc1ccc(-c2nnc(SCC(=O)NC3CCCC3)nc2-c2ccc(OCC)c(OC)c2)cc1OC`, for which the activation was inactive: -6.82%.
In the case of `Clc1cccc(-n2ncc3c(NC4CCCCC4)ncnc32)c1` it was active: 109%.
In the case of `CCN(C(=O)c1noc2c1COc1ccc(C)cc1-2)c1cccc(C)c1` it was inactive: -6.68%; in that of `O=C(Nc1ccccc1F)c1nc(S(=O)(=O)Cc2ccccc2F)ncc1Cl`, inactive: -25.7%.
Turning to `Cc1cccc(N2CCN(C(=O)c3cc(S(=O)(=O)N4CCC(C)CC4)cn3C)CC2)c1C`, the activation is inactive: -28.9%.
Consider `CC(C)(C)OC(=O)N1CCC(c2c(C(=O)NCCN3CCC(Cc4ccccc4)CC3)cnn2-c2cccc(Cl)c2)CC1`, for which the activation is inactive: 26.4%.
Turning to `O=C(NCc1ccc(Cl)cc1)C(=O)NCC(c1cccs1)S(=O)(=O)c1ccc(Cl)cc1` (centres undefined), the activation was inactive: -14.2%.
In the case of `CCCNC(=O)c1ccc2c(c1)N=C(C)c1c(C)ccc(C)c1S2`, the activation is inactive: -1.41%.
As to `O=C(NCCCN1CCN(c2ccccc2)CC1)c1nnc(Cc2c(F)cccc2Cl)o1`, the activation is inactive: -23.7%.
Turning to `CCOC(=O)C1CCN(C(=O)c2cc3ccc4cccnc4c3[nH]2)CC1`, the activation was inactive: -5.17%.
Take `CCOc1ccc(CCNC(=O)C2CCN(c3ncnc4c3nc3n4CCCCC3)CC2)cc1`: the activation is inactive: -11.6%.
For the molecule `COc1ccc(N2CCN(C(=O)c3cnc(N4CCCC4)nc3C)CC2)cc1`, the activation is inactive: -3.48%.
For the molecule `CSc1ccc(CNC(=O)CCn2ccc3cc(S(=O)(=O)N4CCC(C)CC4)ccc32)cc1`, the activation is inactive: -30.5%.
In the case of `COc1cccc(-n2nnc3c(sc4nc(C)cc(C)c43)c2=O)c1` it was inactive: -0.939%; in that of `Cc1c(Cl)cccc1NC(=O)N1CCC(CN2CCCC2)CC1`, inactive: -10.4%; in that of `CCC(Sc1nc2ccccc2c2nc(CCc3c(C)n[nH]c3C)nn12)C(=O)Nc1ccc(F)cc1` (centres undefined), inactive: 0.369%.
With `COc1ccccc1CNS(=O)(=O)c1ccc2[nH]c3c(c2c1)CCCCC3`, the activation was inactive: 35.2%.
Take `CC1=C(c2ccc(C)cc2)S(=O)(=O)N(Cc2ccc(C(=O)NCc3cccc(C)c3)cc2)C1=O`: the activation was inactive: -10.7%.
Take `COC(=O)c1ccc(NC(=O)CSc2nc3ccc(OC)cc3[nH]2)cc1`: the activation was inactive: 47.6%.
`Cc1ccc(NC(=O)CSc2nc(C)c(Cc3ccccc3)c(=O)[nH]2)cc1`: the activation was active: 62.7%.
As for `O=C(NCc1ccccc1Br)C1CCCN(C(=O)N2CCOc3ccccc32)C1` (centres undefined), the activation was inactive: -5.43%.
With `COCCCNC(=O)Cn1c(=O)n(Cc2ccc(C(=O)NCc3ccc(C)cc3)cc2)c(=O)c2ccccc21`, the activation was active: 98.3%.
For the molecule `COC(=O)c1c(NC(=O)c2cc(=O)c3ccc(C)c(C)c3o2)sc2c1CCCC2`, the activation is inactive: 19.3%.
Regarding `COc1ccc(CCNC(=O)CN(c2ccccc2OC)S(=O)(=O)c2ccc(C)cc2)cc1`, the activation is inactive: -2.36%.
Then `O=C(Nc1sc2c(c1C(=O)Nc1ccccc1Cl)CCCC2)c1ccccc1F`, with inactive: -12.9%.
Turning to `COc1ccc(CCNC(=O)Cc2c(C)c3c(cc(C)c4c(C)coc43)oc2=O)cc1`, the activation was inactive: -5.81%.
Take `COc1ccc(-c2cc3nc(-c4ccccc4)cc(C(F)(F)F)n3n2)cc1`: the activation was inactive: -5.71%.
Then `Cc1ccc(NC(=O)CN2C(=O)CSc3ccc(S(=O)(=O)N4CCCC4)cc32)cc1F`, with inactive: -16.7%; and `COC(=O)c1cc(NC(=O)c2oc(=O)c3ccccc3c2-c2ccccc2)cc(C(=O)OC)c1`, with inactive: -4.48%; and `COc1cc(OC)c(NC(=O)c2nnn(Cc3ccc(C)cc3)c2N)cc1Cl`, with inactive: -10.5%.
Then `Cc1ccc(NC(=O)c2c(NC(=O)c3ccco3)sc3c2CCC(C(C)(C)C)C3)c(C)c1` (centres undefined), with inactive: 10.7%; and `CCc1ccc(NC(=O)c2cc(S(=O)(=O)NC3CCCC3)ccc2F)cc1`, with inactive: -6.4%; and `COc1ccc(Br)cc1CNC(=O)Cn1c(=O)c2cccn2c2ccc(F)cc21`, with inactive: -13%.
Turning to `O=C(Cc1ccc(F)cc1)NC1CC(=O)N(c2ccc3c(c2)OCCO3)C1` (centres undefined), the activation is inactive: -1.95%.
Turning to `COc1cccc(-c2cn3c(n2)sc2cc(C(=O)NC4CCCCCC4)ccc23)c1`, the activation was inactive: -11.4%.
Then `O=C(Cn1ncc2c3ccccc3n(Cc3ccc(Cl)cc3)c2c1=O)N1CCCCCC1`, with inactive: -15%; and `CCC(C)c1ccc(OCC(=O)Nc2cccc(-c3nc4ncccc4o3)c2)cc1` (centres undefined), with inactive: 47%.
`CCOc1ccc(NC(=O)c2oc3ccccc3c2NC(=O)Cc2ccc(F)cc2)cc1`: the activation was inactive: -14.1%.
For the molecule `Cc1ccccc1Cn1cc(CCC(=O)NC(C)c2ccccc2)c2ccccc21` (centres undefined), the activation was inactive: -36.3%.
Take `Cc1cc(C)c2oc(-c3cccc(NC(=O)c4ccc(Br)o4)c3)nc2c1`: the activation is inactive: -1.46%.
As to `COc1ccc(OC)c(NC(=O)CN(C)S(=O)(=O)c2ccc(C(=O)N3CCOCC3)s2)c1`, the activation is inactive: -11%.
Then `O=C(Cn1cnc2c(oc3ccccc32)c1=O)Nc1ccccc1C(F)(F)F`, with inactive: -7.47%.
Regarding `COc1ccc(C)cc1NC(=O)N(Cc1ccc(C)o1)C1CCN(C(C)=O)CC1`, the activation is inactive: -10.2%.
As to `Cc1ccc(-c2nnc(Nc3cccc(Cl)c3)c3ccccc23)cc1S(=O)(=O)N1CCOCC1`, the activation is inactive: -1.66%.
Regarding `COc1ccccc1NC(=O)Cn1c(=O)n(Cc2ccccc2)c(=O)c2sc3ccccc3c21`, the activation is inactive: -1.24%.
Take `Cc1cc(C)c(NC(=O)CSc2nc3ccccc3nc2N2CCCCC2)c(C)c1`: the activation was inactive: 2.68%.
As to `CC1CCN(C(=O)Cn2cc(SCC(=O)NCc3ccccc3Cl)c3ccccc32)CC1`, the activation is inactive: -20.5%.
Take `CCC(=O)Nc1cc(C)c(O)c(-c2nc3ncccc3o2)c1`: the activation is inactive: -9.52%.
For the molecule `O=C(NCc1cccc(Cl)c1)c1cc2ccc3cccnc3c2[nH]1`, the activation is inactive: 46.3%.
On to `CC(C)COc1ccc(C(=O)Nc2ccc(S(=O)(=O)Nc3ncccn3)cc2)cc1`, for which the activation is inactive: -5.29%.
Consider `CCC(C(=O)Nc1cccc(Cl)c1C)n1nc(-c2ccc(C)cc2)ccc1=O` (centres undefined), for which the activation was inactive: 47.3%.
Consider `CC(C)COc1cccc(C(=O)Nc2ccc(-c3nc4ncccc4o3)cc2)c1`, for which the activation was inactive: -2.99%.
Regarding `CCCc1nc2sc3c(N4CCC(C)CC4)ncnc3c2c2c1CCCC2`, the activation was inactive: 7.53%.
`Cc1cccc(N2CCN(S(=O)(=O)c3ccc4c(c3)CCCN4C(=O)C3CCC3)CC2C)c1` (centres undefined): the activation was inactive: -27.4%.
In the case of `Cc1ccc(Cl)cc1NC(=O)C(C)n1nnc2sc3c(c2c1=O)CCCC3` (centres undefined) it was inactive: 6.77%; in that of `CCCN1C(C(=O)c2ccccc2)=C(OC(=O)COc2ccccc2)c2ccccc2S1(=O)=O`, inactive: -69.7%; in that of `O=C(NC1CCCCCC1)c1ccc2c(c1)sc1nc(-c3ccc(F)cc3)cn12`, inactive: 0.18%.
Take `CCOc1ccc(NC(=O)CN2C(=O)C(c3ccccc3)=NC23CCC(C)CC3)cc1` (centres undefined): the activation was inactive: -21.7%.
In the case of `CCOC(=O)c1ccc(CN(Cc2ccc(F)cc2)S(=O)(=O)c2cc(C(=O)Nc3cccc(C(F)(F)F)c3)ccc2F)cc1` it was inactive: -13.1%.
Turning to `COc1cc2c(=O)c(S(=O)(=O)c3ccc(F)cc3)cn(Cc3ccc(Cl)cc3)c2cc1OC`, the activation was inactive: -5.73%.

For the origin of these results see PubChem BioAssay AID1346428 (National Center for Advancing Translational Sciences (NCATS), 2018).
